{
  "source": "PubChem BioAssay AID1347165",
  "about": "(National Center for Advancing Translational Sciences (NCATS), 2019)",
  "note": "Screen size: about 220,000 compounds; about 5,700 (2.6%) were called active. The inconclusive results got no clear call from the source; some entries with a clear call stand among them for comparison. Calls come from the whole dose curve; as a rule, active = well fitted inhibition curve with a large enough effect; inconclusive = small, poorly fitted or top-dose-only effect; inactive = no such curve, though single readings can be large or run the other way. Potencies beside an inconclusive call are fits to weak or partial responses and may not hold up. Potency is the fitted concentration of half-maximal effect; tags give direction and shape of the fitted curve.",
  "data": [
    {"target": "Lysine-specific demethylase 5B (Homo sapiens) (UniProt Q9UGL1)", "sequence (Q9UGL1 whole entry, looked up)": "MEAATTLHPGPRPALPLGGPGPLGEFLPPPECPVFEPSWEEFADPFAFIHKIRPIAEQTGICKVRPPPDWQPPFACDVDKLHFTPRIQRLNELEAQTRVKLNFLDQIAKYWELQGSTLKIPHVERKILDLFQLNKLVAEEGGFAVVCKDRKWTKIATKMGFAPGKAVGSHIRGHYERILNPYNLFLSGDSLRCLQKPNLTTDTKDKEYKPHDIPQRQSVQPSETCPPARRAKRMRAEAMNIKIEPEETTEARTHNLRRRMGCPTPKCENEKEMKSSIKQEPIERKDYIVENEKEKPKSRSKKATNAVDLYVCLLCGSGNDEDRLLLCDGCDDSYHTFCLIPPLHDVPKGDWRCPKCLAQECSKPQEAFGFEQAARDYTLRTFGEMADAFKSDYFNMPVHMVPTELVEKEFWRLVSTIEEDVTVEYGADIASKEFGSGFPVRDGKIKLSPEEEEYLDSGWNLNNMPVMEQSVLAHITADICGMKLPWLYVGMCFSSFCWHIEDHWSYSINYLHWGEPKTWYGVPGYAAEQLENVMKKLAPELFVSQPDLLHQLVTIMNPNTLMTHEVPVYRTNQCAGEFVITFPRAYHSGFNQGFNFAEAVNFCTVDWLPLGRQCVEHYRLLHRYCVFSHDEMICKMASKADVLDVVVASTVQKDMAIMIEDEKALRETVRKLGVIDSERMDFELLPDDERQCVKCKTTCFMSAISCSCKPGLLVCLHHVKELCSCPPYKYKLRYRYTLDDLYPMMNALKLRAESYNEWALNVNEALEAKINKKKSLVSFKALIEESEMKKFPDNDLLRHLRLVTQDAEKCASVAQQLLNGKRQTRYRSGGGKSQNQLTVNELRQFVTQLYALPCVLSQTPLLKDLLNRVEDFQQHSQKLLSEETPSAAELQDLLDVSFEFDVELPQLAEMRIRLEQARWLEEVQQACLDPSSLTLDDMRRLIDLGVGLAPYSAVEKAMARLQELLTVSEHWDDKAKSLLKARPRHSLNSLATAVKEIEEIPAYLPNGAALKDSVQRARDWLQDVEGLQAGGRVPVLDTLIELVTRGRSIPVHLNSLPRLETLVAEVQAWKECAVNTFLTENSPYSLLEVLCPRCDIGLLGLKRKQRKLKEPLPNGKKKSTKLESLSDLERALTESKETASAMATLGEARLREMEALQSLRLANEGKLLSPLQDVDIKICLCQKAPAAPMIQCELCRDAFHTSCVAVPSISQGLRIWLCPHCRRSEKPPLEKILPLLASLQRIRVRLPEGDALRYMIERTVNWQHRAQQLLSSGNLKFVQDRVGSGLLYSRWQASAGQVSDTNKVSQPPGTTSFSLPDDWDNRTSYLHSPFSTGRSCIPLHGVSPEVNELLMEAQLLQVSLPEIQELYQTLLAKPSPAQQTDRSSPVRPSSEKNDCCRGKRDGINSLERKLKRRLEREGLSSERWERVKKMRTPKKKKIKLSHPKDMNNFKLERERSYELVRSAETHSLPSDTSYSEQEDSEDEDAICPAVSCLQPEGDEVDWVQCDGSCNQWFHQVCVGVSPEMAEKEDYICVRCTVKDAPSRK", "assay": "Primary screen for KDM5B Histone Demethylases FDH-coupled qHTS; note: nearly all actives have a fitted effect of over 70% in size; for activity change, negative = inhibition: 0% is about no effect", "settings": "FDH-coupled NADH fluorescence (FDH is formaldehyde dehydrogenase); activity change, negative = inhibition: at 57.7 µM (top of the series) unless noted", "how_it_was_run": "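Measured: NADH fluorescence change, 30 min, RT. System: KDM5BΔAP 200 nM final, H3K4me3 peptide, α-KG, Fe(II), ascorbate, NAD⁺ plus FDH, pH 7.5 HEPES. Compounds: titrated, 10 min pre-incubation with enzyme.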", "values": [
      {"compound": "COc1ccc(NC(=O)c2nc(-c3ccc(C)cc3)n3c2CCCCC3)cc1", "Potency": "inconclusive: 39.8 µM [inhibitor, single point]"},
      {"compound": "O=C(c1ccc(F)cc1)n1nc(-c2cccnc2)nc1NCc1ccccc1", "activity change, negative = inhibition": "inactive: -10.8%"},
      {"compound": "O=C(N1CCN(c2nc(-c3ccccc3)c3ccccc3n2)CC1)C(F)(F)F", "Potency": "inconclusive: 2 µM [inhibitor, full curve, poor fit]"},
      {"compound": "COc1ccc(-c2[nH]nc3ncc(C(=O)N4CCC(c5ccccc5)CC4)nc23)c(C)c1", "Potency": "inconclusive: 35.5 µM [inhibitor, single point]"},
      {"compound": "Fc1ccc(Nc2nc3ccccc3n3cnnc23)c(F)c1", "Potency": "inconclusive: 28.2 µM [inhibitor, partial curve, poor fit]"},
      {"compound": "CCN1CCN(CCNC(=O)c2cc(-c3ccc(NC(C)=O)cc3)nc3ccccc23)CC1", "Potency": "inconclusive: 28.2 µM [inhibitor, single point]"},
      {"compound": "COc1cc(OC)c2c(C)c(CC(=O)N3CCCC3)c(=O)oc2c1", "Potency": "inconclusive: 25.1 µM [inhibitor, partial curve, poor fit]"},
      {"compound": "Cc1noc(C)c1CCC(=O)N1CCN(Cc2ccccc2)CC(O)C1", "note": "(configuration not stated)", "Potency": "inconclusive: 22.4 µM [inhibitor, partial curve]"},
      {"compound": "COc1cc(C)cc2oc(=O)c(CC(=O)NCc3ccco3)c(C)c12", "Potency": "inconclusive: 1.78 µM [inhibitor, partial curve, poor fit]"},
      {"compound": "CC1(C(=O)NCc2ccc3c(c2)OCO3)CCc2cnc(NCc3ccccc3)nc21", "note": "(configuration not stated)", "Potency": "active: 25.1 µM"},
      {"compound": "COc1ccc(N2CCOC3CCN(Cc4ccccn4)CC3C2=O)cc1", "note": "(configuration not stated)", "Potency": "inconclusive: 25.1 µM [inhibitor, single point]"},
      {"compound": "CC1CCN(C(=O)C(=O)c2cn(CC(=O)N3CCCCCC3)c3ccccc23)CC1", "Potency": "inconclusive: 25.1 µM [inhibitor, partial curve, poor fit]"},
      {"compound": "Cn1c(=O)c2nc(SCc3cccc(F)c3)n(C)c2n(C)c1=O", "Potency": "inconclusive: 39.8 µM [inhibitor, single point]"},
      {"compound": "O=C1OCc2nc3cc4c(cc3c(-c3ccc(F)cc3)c21)OCO4", "Potency": "inconclusive: 28.2 µM [inhibitor, partial curve, poor fit]"},
      {"compound": "O=C(NCc1ccncc1)C1CN(Cc2ccoc2)CC12CCOCC2", "note": "(configuration not stated)", "Potency": "inconclusive: 39.8 µM [inhibitor, single point]"},
      {"compound": "CCCOC(=O)c1ccc(NC(=O)COC(=O)C2CCN(c3ccc(C(F)(F)F)cn3)CC2)cc1", "Potency": "inconclusive: 22.4 µM [inhibitor, partial curve, poor fit]"},
      {"compound": "CNc1nc(SCC(=O)Nc2cc(C)on2)nc2ccccc12", "activity change, negative = inhibition": "inactive: 7.36%"},
      {"compound": "Cc1nc2cc(NC(=O)CC3(C(=O)O)CCCCC3)ccc2o1", "Potency": "inconclusive: 39.8 µM [inhibitor, partial curve, poor fit]"},
      {"compound": "CSc1ccc(CCNC(=O)CCCn2c(=O)c3cccn3c3ccccc32)cc1", "Potency": "inconclusive: 39.8 µM [inhibitor, single point]"},
      {"compound": "CC(C)=NNC(=O)c1ccc(Cl)cc1", "Potency": "inconclusive: 39.8 µM [inhibitor, single point]"},
      {"compound": "CC(C)c1ccc(N(CC(=O)O)S(=O)(=O)c2ccc3[nH]c(=O)c(=O)[nH]c3c2)cc1", "Potency": "inconclusive: 31.6 µM [inhibitor, single point]"},
      {"compound": "COc1ncccc1-c1nc(N2CCOCC2)cc2c1CN(CC(F)(F)F)C2=O", "Potency": "inconclusive: 31.6 µM [inhibitor, partial curve, poor fit]"},
      {"compound": "N#Cc1cccc(NC(=O)O[C@@H]2CO[C@H]3[C@@H]2OC[C@@H]3Nc2nccc(-c3ccccc3)n2)c1", "Potency": "inconclusive: 12.6 µM [inhibitor, partial curve]"},
      {"compound": "Cc1ccc(C)c(NC(=O)C2CCCN2c2ncnc3ccccc23)c1", "note": "(configuration not stated)", "activity change, negative = inhibition": "inactive: -2.21%"},
      {"compound": "CC(=O)Nc1cccc(-c2csc(Nc3ccc(C)cc3)n2)c1", "activity change, negative = inhibition": "inactive: -3.8%"},
      {"compound": "CCCOc1ccc(C(=O)Nc2cccc3ncccc23)cc1", "Potency": "inconclusive: 28.2 µM [inhibitor, partial curve, poor fit]"},
      {"compound": "Cc1nc(NC(=O)c2ccccc2)sc1-c1csc(Nc2ccccc2Cl)n1", "Potency": "inconclusive: 25.1 µM [inhibitor, single point]"},
      {"compound": "Cc1ccc(Cn2c(=O)n(CCCC(=O)NCc3ccc4c(c3)OCO4)c(=O)c3ccccc32)cc1", "Potency": "inconclusive: 25.1 µM [inhibitor, single point]"},
      {"compound": "Cc1ccc(S(=O)(=O)Cc2nc(-c3ccc(C(=O)NCCCOC(C)C)cc3)oc2C)cc1", "Potency": "inconclusive: 2.82 µM [inhibitor, partial curve, poor fit]"},
      {"compound": "Cc1ccccc1NC(=O)/C(C#N)=C/c1ccc(Cl)cc1Cl", "Potency": "inconclusive: 25.1 µM [inhibitor, partial curve, poor fit]"},
      {"compound": "COc1ccc2[nH]c(C(=O)N3CCC4(CC3)CC(O)CCO4)cc2c1", "note": "(configuration not stated)", "Potency": "inconclusive: 28.2 µM [inhibitor, partial curve, poor fit]"},
      {"compound": "CCCCN(C)Cc1ccc(CC)cc1", "Potency": "inconclusive: 39.8 µM [inhibitor, single point]"},
      {"compound": "CCc1ccc(NCc2cc3cc4c(cc3n(CC(=O)Nc3ccccc3C)c2=O)OCCO4)cc1", "Potency": "inconclusive: 5.62 µM [inhibitor, partial curve, poor fit]"},
      {"compound": "Cc1cccc(C)c1NC(=O)CN(C)C(=O)c1ccc(COc2ccccc2)cc1", "Potency": "inconclusive: 35.5 µM [inhibitor, single point]"},
      {"compound": "COc1ccccc1CNC(=O)Cn1c(=O)c2c(ncn2C2CCCC2)n(Cc2ccccc2)c1=O", "activity change, negative = inhibition": "inactive: 7.23%"},
      {"compound": "CCOC(=O)c1ccc(NC(=O)CC(=O)Nc2ccc3nc4n(c(=O)c3c2)CCCCC4)cc1", "Potency": "inconclusive: 25.1 µM [inhibitor, partial curve, poor fit]"},
      {"compound": "CCCNC(=O)Cc1csc2nc(C)c(-c3cc(C)n(-c4ccccc4CC)n3)c(=O)n12", "Potency": "inconclusive: 28.2 µM [inhibitor, partial curve, poor fit]"},
      {"compound": "COc1cccc2c1OCC(CN1CCC3(C1)CN(C)C(=O)O3)=C2", "note": "(configuration not stated)", "Potency": "inconclusive: 14.1 µM [inhibitor, partial curve]"},
      {"compound": "O=C(Cc1ccc(F)cc1)NCc1nnc2ccc(-c3ccc(Cl)cc3)nn12", "Potency": "inconclusive: 28.2 µM [inhibitor, partial curve, poor fit]"},
      {"compound": "COc1ccc(-c2cc3c(nc2-c2ccccc2)nc(C(=O)NCCN(C)C)n3C)cc1OC", "Potency": "inconclusive: 25.1 µM [inhibitor, single point]"},
      {"compound": "c1c(CN2CCCN(CCCN3CCCC3)CC2)nn2c1CNCC2", "Potency": "inconclusive: 17.8 µM [inhibitor, partial curve, poor fit]"},
      {"compound": "Cn1cc(CC(=O)NC(C(N)=O)c2ccccc2)c2ccccc21", "note": "(configuration not stated)", "activity change, negative = inhibition": "inactive: 10.8%"},
      {"compound": "CNC(=O)c1c(NC(=O)/C=C/c2ccccc2)sc2c1CCC2", "Potency": "inconclusive: 17.8 µM [inhibitor, single point]"},
      {"compound": "Cc1ccc2nc(-c3ccc(NC(=O)COc4ccc(Br)cc4Br)cc3)sc2c1", "Potency": "inconclusive: 25.1 µM [inhibitor, partial curve, poor fit]"},
      {"compound": "O=C(NCc1ccnc(-n2cccn2)c1)c1ccc(NC(=O)c2ccccn2)cc1", "activity change, negative = inhibition": "inactive: -1.75%"},
      {"compound": "Cn1cc(CN2C[C@@H]3C[C@H](C2)c2ccc(NC(=O)c4cccs4)c(=O)n2C3)c2ccccc21", "Potency": "active: 25.1 µM"},
      {"compound": "O=C(c1ccc2ncccc2c1)N1CCOC(c2ccc(Cl)c(Cl)c2)C1", "note": "(configuration not stated)", "activity change, negative = inhibition": "inactive: 26.4%"},
      {"compound": "CC(C)Oc1ccc(CNC(=O)C2CCCN(c3cnn(C)c(=O)c3)C2)cc1", "note": "(configuration not stated)", "activity change, negative = inhibition": "inactive: -21.7%"},
      {"compound": "Nc1nc(CN2CCN(C(=O)CNC(=O)c3ccc(OC(F)F)cc3)CC2)nc2ccccc12", "activity change, negative = inhibition": "inactive: 16.7%"},
      {"compound": "CC(C)CCO[C@H]1COCCN(Cc2ccccn2)C1", "Potency": "inconclusive: 35.5 µM [inhibitor, single point]"},
      {"compound": "Oc1c(C(c2ccc(F)cc2)N2CCN(Cc3ccccc3)CC2)sc2nc(-c3ccco3)nn12", "note": "(configuration not stated)", "Potency": "inconclusive: 28.2 µM [inhibitor, single point]"},
      {"compound": "COCCc1noc(-c2ccccc2OC2CN(C(=O)CCn3nc(C)cc3C)C2)n1", "Potency": "inconclusive: 17.8 µM [inhibitor, partial curve, poor fit]"},
      {"compound": "COc1ccc(C(=O)N/C(=C\\c2ccc(-c3cccc(Cl)c3)o2)C(=O)NC(C)(C)C)cc1", "activity change, negative = inhibition": "inactive: 4.57%"},
      {"compound": "Cc1ccc2c(CSc3ncn[nH]3)cc(=O)oc2c1", "Potency": "inconclusive: 39.8 µM [inhibitor, single point]"},
      {"compound": "Fc1ccc(CN2CC[C@H](c3nc4cc(Cl)ccc4o3)C2)cc1F", "Potency": "inconclusive: 28.2 µM [inhibitor, single point]"},
      {"compound": "Cc1ccc(-c2ccc3nnc(CNC(=O)Cc4ccsc4)n3n2)cc1C", "Potency": "inconclusive: 31.6 µM [inhibitor, partial curve, poor fit]"},
      {"compound": "Cc1cccc(N2CCN(C(=O)Cn3c(-c4cccs4)cc4ccccc43)CC2)c1C", "Potency": "inconclusive: 25.1 µM [inhibitor, partial curve, poor fit]"},
      {"compound": "Cc1cc(-c2cc3c(cn2)CN(CC2CCOC2)CCN3)ccn1", "note": "(configuration not stated)", "Potency": "inconclusive: 39.8 µM [inhibitor, partial curve, poor fit]"},
      {"compound": "CCCS(=O)(=O)N1CC(=O)N(c2ccc(C)c(Cl)c2)C(C)(C(=O)NC2CCCCCC2)C1", "note": "(configuration not stated)", "activity change, negative = inhibition": "inconclusive: -31.2% [inhibitor]"},
      {"compound": "CCc1ccc(-n2nc(CO)c(C(=O)NC)n2)cc1", "Potency": "inconclusive: 14.1 µM [inhibitor, partial curve, poor fit]"},
      {"compound": "Cc1ccccc1-n1ccnc1SCC(=O)c1ccc(F)c(F)c1", "activity change, negative = inhibition": "inactive: 2.28%"},
      {"compound": "CC1CCCCN1C(=O)CSc1nnc2c(n1)[nH]c1ccc(F)cc12", "note": "(configuration not stated)", "activity change, negative = inhibition": "inactive: -0.956%"}
    ]}
  ]
}
